# Reference: PubChem BioAssay AID504832 (National Center for Advancing Translational Sciences (NCATS), 2011)
# About 18,000 (5.8%) of roughly 310,000 compounds were called active. This list was built around the results that the source calls inconclusive (neither active nor inactive); the mix of calls is not that of the screen. Calls come from the whole dose curve; as a rule, active = well fitted inhibition curve with a large enough effect; inconclusive = small, poorly fitted or top-dose-only effect, or another doubt; inactive = no such curve, though single readings can be large or run the other way. No potency is given beside an inconclusive call; the fits are too rough.
# Assay: Primary qHTS for delayed death inhibitors of the malarial parasite plastid, 48 hour incubation
# Conditions: P. falciparum luciferase growth in erythrocytes; series mostly up to 28.7 µM; activity change, negative = inhibition: at the top concentration
# Method in brief: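 Parasite viability was followed by luminescence of a genomically integrated firefly luciferase. Cultures held 0.1% parasitemia at 2% hematocrit (final), incubated under 5% CO2 at 37 C.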
# % is set by controls: 0 for no effect and ±100 for the full control effect; potency is the fitted concentration of half-maximal effect; tags give direction and shape of the fitted curve.
Compound,Potency,"activity change, negative = inhibition"
COc1cc2c(cc1OC)CN(CC(=O)Nc1ccc(Cl)cc1Cl)CC2,"inconclusive [inhibitor, full curve]",–
Cc1ccnc(NC(=O)c2cc(S(=O)(=O)NCc3ccccc3)ccc2C)c1,–,inactive: -23.1%
Cc1ccccc1NC(=O)c1cc(-c2ccccc2)n(CCCN2CCOCC2)c1C,"inconclusive [inhibitor, single point]",–
CCOC(=O)c1[nH]c2c(c1C)C(=O)CC(c1ccc(N(C)C)cc1)C2 (centres undefined),"inconclusive [inhibitor, partial curve]",–
Cc1cc(CNCc2c(C(=O)N3CCCCCCC3)nc3ccc(Cl)cn23)nn1C,"inconclusive [inhibitor, partial curve]",–
COc1ccc(C)cc1-n1c(N)c(C#N)c(C#N)c1-c1ccc(OC)c(OC)c1OC,active: 11.7 µM,–
COc1cc(Cn2c(C(=O)O)cc3sccc32)cc(OC)c1OC,"inconclusive [inhibitor, partial curve, poor fit]",–
COC/C=C/C1=CC2=CC(=O)C(C)(OC(=O)CCC(=O)OC)C(=O)C2=CO1 (centres undefined),–,inactive: 36.7%
Cc1cccc(-c2noc(C3CCCCC3)n2)c1,–,inactive: 164%
Cc1ccc(NC(=O)CSCC(=O)Nc2ccccc2C(=O)N2CCCCC2)cc1,"inconclusive [inhibitor, single point]",–
Cc1ccc(N(CC(=O)NCCc2ccccc2)S(=O)(=O)c2c(C)noc2C)cc1,"inconclusive [inhibitor, single point]",–
CN(C(=O)c1cc2c(s1)-c1ccccc1S(=O)(=O)C2)c1ccccc1,active: 9.28 µM,–
NC(=S)NNc1ccnc2cc(Cl)ccc12,active: 2.94 µM,–
Clc1cc(Cl)c(OCC#CI)cc1Cl,"inconclusive [inhibitor, single point]",–
Cc1nn(Cc2c(Cl)cccc2Cl)c(C)c1NC(=O)/C=C/c1cnn(C)c1C,"inconclusive [inhibitor, single point]",–
Cc1cccc(-c2nc(CN3CCCC(C(=O)NC4CCCC4)C3)c(C)o2)c1 (centres undefined),"inconclusive [inhibitor, single point]",–
CC(C)C(Sc1nc(-c2ccccc2)cc(-c2ccccc2)c1C#N)C(=O)O (centres undefined),"inconclusive [inhibitor, full curve]",–
CC(C)c1nnc(NC(=O)CCC(=O)NCCc2ccccc2)s1,–,inactive: -10.9%
COc1ccc(N(C(C)C(=O)N/N=C/c2ccc(OC(C)C)cc2)S(C)(=O)=O)cc1 (centres undefined),"inconclusive [inhibitor, single point]",–
CCn1c(=O)n(CC(=O)Nc2cccc(OC)c2)c(=O)c2ccccc21,–,inactive: 1.48%
Nc1nonc1C(=O)N/N=C/c1ccc([N+](=O)[O-])o1,"inconclusive [inhibitor, single point]",–
Cc1sc2ncnc(N3CCC(C(=O)NNC(=O)COc4ccccc4Cl)CC3)c2c1C,active: 11.7 µM,–
O=C(Cc1ccccc1[N+](=O)[O-])NCc1ccc(Cl)cc1,–,inactive: 46.6%

Compound,Potency,"activity change, negative = inhibition"
Cn1c(=O)c2sccc2n2c(CCCC(=O)N3CCN(c4ccccn4)CC3)nnc12,"inconclusive [inhibitor, single point]",–
O=[N+]([O-])c1ccc2c(c1)ncn2CCc1ccccc1,"inconclusive [inhibitor, full curve]",–
CCc1cccc(NC(=O)CSc2nnc(Cc3ccc(OC)cc3)c(=O)[nH]2)c1,–,inactive: 14%
O=C(COC(=O)c1ccc2c(=O)n3c(nc2c1)CCC3)NC1CCS(=O)(=O)C1 (centres undefined),–,inactive: 11.6%
CC1=CC(C)(C)NC(=S)N1c1ccc(C)cc1C,"inconclusive [inhibitor, partial curve]",–
O=C1NC(c2ccccc2)=C(c2nc3ccccc3s2)C(c2ccccc2)N1 (centres undefined),"inconclusive [inhibitor, partial curve, poor fit]",–
Cc1cccc(Cn2cnc3c(nnn3Cc3ccc(Cl)cc3)c2=O)c1,"inconclusive [inhibitor, partial curve]",–
CNC[C@@H](Cc1ccccc1)NC[C@@H](CC1CCCCC1)NCCCc1ccccc1,"inconclusive [inhibitor, partial curve, poor fit]",–
O=C1NC(=O)C2(Cc3ccccc3N3CCCC32)C(=O)N1Cc1ccccc1 (centres undefined),"inconclusive [inhibitor, single point]",–
Cc1cc(F)ccc1NC(=O)c1cc(S(=O)(=O)N2CCOCC2)cn1C,"inconclusive [inhibitor, full curve, poor fit]",–
Cc1c(C)n(CCCN(C)C)c2ncnc(Nc3ccccc3)c12,–,inactive: 17.9%
O=C(O)Cc1sc(Nc2cccc3ccccc23)nc1-c1ccc(Cl)cc1,"inconclusive [inhibitor, partial curve]",–
CCCCCCOC(=O)c1ccccc1NC(=O)/C=C/C(=O)O,–,inactive: -7.43%
CCc1sc(N(C(=O)Cc2ccccc2)c2ccccc2)nc1-c1ccccc1,active: 13.1 µM,–
CCOc1ccc(S(=O)(=O)NCCCn2ccnc2)cc1,–,inactive: -1.32%
CNC(=S)N/N=C/c1c2ccccc2c(Cl)c2ccccc12,active: 2.62 µM,–
O=C(Nc1ccccc1)Nc1ccc(Cl)c(S(=O)(=O)N2CCOCC2)c1,active: 9.28 µM,–
O=C(NC1CCCCC1)C(c1ccc(Cl)cc1)N1CCC2(CC1)OCCO2 (centres undefined),"inconclusive [inhibitor, full curve, poor fit]",–
COc1ccccc1NC(=O)C1=C(C)NC(SCC(=O)Nc2ccc(C(=O)O)cc2)=C(C#N)C1c1cccs1 (centres undefined),"inconclusive [inhibitor, single point]",–
CCOC(=O)c1c(NC(=O)CN2CCN(C(=O)c3ccco3)CC2)sc(C)c1C,"inconclusive [inhibitor, full curve]",–
CC1Cc2ccccc2N1C(=O)C1CCCCN1S(=O)(=O)c1ccccc1 (centres undefined),"inconclusive [inhibitor, partial curve]",–
CC(=O)Nc1ccc(S(=O)(=O)c2c(N)n(CCN3CCOCC3)c3nc4ccccc4nc23)cc1,"inconclusive [inhibitor, partial curve, poor fit]",–
CCC(C)(C)n1nnnc1C(c1cc(OC)ccc1OC)N1CCC(C(N)=O)CC1 (centres undefined),–,inactive: -26%

Compound,Potency,"activity change, negative = inhibition"
CCOC(=O)C1CCN(S(=O)(=O)c2cn(C)c(C)n2)CC1,"inconclusive [inhibitor, single point]",–
COc1ccc(N=C2C(=O)N3c4c(cccc42)C(C)=CC3(C)C)cc1,"inconclusive [inhibitor, single point]",–
C=CCn1c(NC(=O)c2ccccc2)nc2ccccc21,"inconclusive [inhibitor, single point]",–
CC(C)Cc1cc(-c2ccco2)c(C#N)c(N)n1,–,inactive: 12.7%
CC(=O)Nc1ccc(NC(=O)C(C)OC(=O)c2cccc(S(=O)(=O)N3CCCC3)c2)cc1 (centres undefined),–,inactive: 21%
CC1CCCC(NC(=S)NC(=O)c2cncc(Br)c2)C1C (centres undefined),active: 13.1 µM,–
CCO[C@H]1OC(C(=O)NCc2ccccc2)=C[C@@H](c2coc3ccccc3c2=O)[C@@H]1CCCO,"inconclusive [inhibitor, single point]",–
COCCCn1c(SCC(=O)Nc2cccc(C(=O)OC)c2)nnc1-c1ccncc1,–,inactive: 9.96%
CCOC(=O)c1c(NC(=O)c2cccs2)sc2c1CCCC2,–,inactive: 0%
COc1ccc(NC(=O)c2ccc3c(=O)n(-c4ccc(OC)cc4OC)c(=S)[nH]c3c2)c(OC)c1,"inconclusive [inhibitor, single point]",–
C(=N\Nc1nc2ccccc2[nH]1)/c1ccc2c(c1)OCCO2,"inconclusive [inhibitor, full curve, poor fit]",–
COc1ccccc1-c1c(C)oc2c(CN3CCCCC3C)c(O)ccc2c1=O (centres undefined),"inconclusive [inhibitor, single point]",–
C=CCN1c2ccccc2[C@]23C[C@@H](C(=O)OC)N(C(=O)CC(C)C)C2=NC(C(=O)OC)=C(C(=O)OC)[C@H]13,"inconclusive [inhibitor, single point]",–
O=S(=O)(NCC(O)COCc1ccco1)c1cccs1 (centres undefined),–,inactive: 12.2%
COC(=O)C1=C(c2ccc(Cl)c(C(F)(F)F)c2)C[C@@H]2CC[C@H]1N2C(=O)NC(C)C,"inconclusive [inhibitor, partial curve]",–
Cc1ccc(NC(=O)C2CCN(S(=O)(=O)c3ccc4c(c3)CC(C)N4C(=O)C3CCC3)CC2)nc1 (centres undefined),"inconclusive [inhibitor, partial curve]",–
CCCn1c(SCC(=O)Nc2nc(C)c(C(=O)OC)s2)nnc1C(C)C,"inconclusive [inhibitor, single point]",–
CCn1c(SCC(=O)c2ccc3ccccc3c2)nnc1-c1ccco1,"inconclusive [inhibitor, partial curve, poor fit]",–
Cc1cc(C(=O)N/N=C/c2c(C)nn(-c3ccccc3)c2C)c(C)o1,"inconclusive [inhibitor, partial curve, poor fit]",–
C#Cc1ccc(CN2CCCC(C(=O)Nc3ccccc3Oc3cccnc3)C2)cc1 (centres undefined),active: 10.4 µM,–
Cc1cc(C=O)c2c(c1)C=CC1(Oc3ccccc3C(=O)N1C)O2 (centres undefined),"inconclusive [inhibitor, partial curve, poor fit]",–
COc1ccccc1-n1c(N)c(C(N)=O)sc1=S,–,inactive: 26.7%
COc1ccc(C2=CC(=O)OC3(CCCCC3)O2)cc1,active: 4.15 µM,–
